# The supplement of paper PMC7826260
# The list shows a part of the results. Viral Rep nickase domains cut single-stranded DNA in vitro (3 µM enzyme, 1 h, 37 °C); shown is the middle of each 90-letter strand. The score is log2 (uncut reads / reads without enzyme); more negative means more cut, near 0 not cut, and no call is made. Shares of all reads are compared; uncut strands gain when others are lost, and binding without cutting may add a little.
# Columns and labels:
# Assay in all cases: uncleaved DNA left, log2 of reads against the no-enzyme library (log2 ratio); higher = less cleavage (more negative = more Rep cleavage of the k-mer); sequences stand for … in CTCGTCCG…ACCGGAGA
# [1] = system: T1, Rep nickase domain of Muscovy duck circovirus
# T1 sequence (residues 1-111 of Rep, tag left off): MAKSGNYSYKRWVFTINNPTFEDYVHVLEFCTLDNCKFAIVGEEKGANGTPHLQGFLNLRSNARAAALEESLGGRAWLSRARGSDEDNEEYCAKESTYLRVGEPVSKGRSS
# Method: (§1)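 A pool of 90-nt single-stranded DNAs with seven random bases just before the constant AC of the nick site (name = the seven bases) was cut by 3 µM recombinant His6-SUMO-tagged Rep nickase domain (300 nM DNA, 50 mM HEPES pH 8.0, 50 mM NaCl, 1 mM MnCl2, 1 h, 37 °C, three replicates). Uncut DNA was amplified and sequenced.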
# [2] = system: T2, Rep nickase domain of banana bunchy top virus
# T2 sequence (residues 1-94 of Rep, tag left off): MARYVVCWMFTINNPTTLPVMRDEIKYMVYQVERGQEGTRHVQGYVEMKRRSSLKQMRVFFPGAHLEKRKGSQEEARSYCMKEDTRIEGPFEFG
# Method: as §1
# [3] = system: T3, Rep nickase domain of cabbage leaf curl virus
# T3 sequence (residues 1-116 of Rep, tag left off): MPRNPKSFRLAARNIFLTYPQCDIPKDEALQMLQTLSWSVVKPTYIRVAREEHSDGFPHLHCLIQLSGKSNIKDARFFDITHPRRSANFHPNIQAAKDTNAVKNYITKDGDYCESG
# Method: as §1
# [4] = system: T4, Rep nickase domain of chickpea chlorotic dwarf virus
# T4 sequence (residues 1-124 of Rep, tag left off): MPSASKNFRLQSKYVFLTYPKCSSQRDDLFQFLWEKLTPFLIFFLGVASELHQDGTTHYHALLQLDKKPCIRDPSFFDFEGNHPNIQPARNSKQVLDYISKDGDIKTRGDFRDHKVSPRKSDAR
# Method: as §1
# [5] = system: T5, Rep nickase domain of faba bean necrotic yellows virus
# T5 sequence (residues 1-98 of Rep, tag left off): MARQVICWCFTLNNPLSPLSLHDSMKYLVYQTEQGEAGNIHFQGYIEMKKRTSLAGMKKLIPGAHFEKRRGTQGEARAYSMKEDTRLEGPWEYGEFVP
# Method: as §1
# [6] = system: T6, Rep nickase domain of maize striate mosaic virus
# T6 sequence (residues 1-117 of Rep, tag left off): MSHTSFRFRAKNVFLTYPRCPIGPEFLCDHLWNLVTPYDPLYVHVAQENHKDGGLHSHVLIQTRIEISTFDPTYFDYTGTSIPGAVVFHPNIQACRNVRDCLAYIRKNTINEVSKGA
# Method: as §1
# [7] = system: T7, Rep nickase domain of porcine circovirus 2
# T7 sequence (residues 2-116 of Rep, tag left off): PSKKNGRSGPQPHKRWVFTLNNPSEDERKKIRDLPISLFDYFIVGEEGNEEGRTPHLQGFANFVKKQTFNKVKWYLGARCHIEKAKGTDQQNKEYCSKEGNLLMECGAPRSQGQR
# Method: as §1
# [8] = system: T8, Rep nickase domain of tomato golden mosaic virus
# T8 sequence (residues 1-124 of Rep, tag left off): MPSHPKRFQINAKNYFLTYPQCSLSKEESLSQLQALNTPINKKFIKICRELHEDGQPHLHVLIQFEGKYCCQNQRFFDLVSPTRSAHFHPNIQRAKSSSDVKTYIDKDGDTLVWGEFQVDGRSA
# Method: as §1
# [9] = system: T9, Rep nickase domain of tomato yellow leaf curl virus
# T9 sequence (residues 1-136 of Rep, tag left off): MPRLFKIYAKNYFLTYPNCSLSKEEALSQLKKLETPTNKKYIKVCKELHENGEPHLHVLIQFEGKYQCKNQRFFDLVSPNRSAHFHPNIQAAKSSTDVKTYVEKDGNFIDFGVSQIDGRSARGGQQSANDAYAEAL
# Method: as §1
# [10] = system: T10, Rep nickase domain of wheat dwarf virus
# T10 sequence (residues 1-137 of Rep, tag left off): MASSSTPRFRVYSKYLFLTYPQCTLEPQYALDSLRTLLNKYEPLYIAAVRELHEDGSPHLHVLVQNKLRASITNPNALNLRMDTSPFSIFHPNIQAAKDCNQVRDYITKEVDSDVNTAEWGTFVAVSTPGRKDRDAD
# Method: as §1
Sequence,uncleaved DNA left (log2) [1],uncleaved DNA left (log2) [2],uncleaved DNA left (log2) [3],uncleaved DNA left (log2) [4],uncleaved DNA left (log2) [5],uncleaved DNA left (log2) [6],uncleaved DNA left (log2) [7],uncleaved DNA left (log2) [8],uncleaved DNA left (log2) [9],uncleaved DNA left (log2) [10]
GAGCGCC,0.111,-0.0166,0.158,0.552,-0.0208,0.837,0.0428,0.137,0.0969,0.12
TTAGAGA,0.0614,0.0346,0.344,0.343,-0.0324,-0.366,0.0362,-0.00935,0.0644,0.118
CGGCCAG,0.000284,-0.0597,-0.26,-0.0172,-0.0711,-0.383,0.14,-0.126,-0.0377,-0.0213
AGCGTCC,0.0529,-0.007,0.132,0.373,-0.0805,0.663,0.0387,0.0866,0.149,0.116
TTGTCCT,-0.722,-0.252,-0.0702,-1.99,-0.215,-0.666,-2.67,-0.207,0.041,-0.131
ACGCGCT,-0.008,0.0192,-0.711,-0.928,-0.086,-1.24,0.0847,0.00194,-0.0978,-0.144
GGCACGA,0.0478,-0.0332,0.592,1.44,-0.00106,1.72,0.222,-0.00578,0.101,0.141
CGGTCGC,-0.169,-0.0531,0.139,1.12,-0.129,1.08,-0.0363,-0.0568,-0.0483,-0.146
CTGTGCC,0.148,-0.0701,-0.205,-0.533,-0.00489,-0.823,0.00815,-0.0945,0.00702,-0.0947
GTTGGAC,-0.0397,0.0642,0.852,1.94,0.0874,2.17,0.214,0.0442,0.157,0.144
GGAATCG,0.0373,-0.0316,-0.603,-0.285,-0.113,-0.694,0.0952,-0.00887,0.0776,-0.0224
AATTTGG,-0.000184,-0.022,-0.263,-0.2,-0.00525,-0.935,-0.00736,-0.0321,-0.0019,0.0655
CGGTCGA,-0.0329,0.0528,-0.244,-0.275,0.0179,-0.535,0.0569,-0.11,0.0768,-0.00757
AACGTTA,0.0358,-0.0914,-0.161,-1.79,0.0657,-0.342,-0.306,0.101,-0.0526,-0.0871
CGCCTCG,-0.0533,0.0191,-0.617,-0.283,0.0356,-0.749,0.116,-0.0328,-0.061,0.0251
ACTACAC,0.0812,0.0529,-0.0897,-0.591,0.0231,-0.636,0.107,-0.0376,-0.0339,-0.0387
CGTTTTA,-0.225,-0.1,0.0355,-0.291,-0.00437,0.652,-0.243,-0.00242,-0.0832,-0.12
CTTATAC,0.00107,0.0163,-0.0256,-0.95,-0.0754,-0.764,-0.0704,0.0333,-0.025,0.0482
GGTAGTC,0.0889,0.0676,0.645,1.24,0.0447,1.75,0.142,-0.0308,0.132,0.132
GGCCGAG,0.107,0.2,0.991,2.17,0.0762,2.31,0.262,0.222,0.179,0.22
CCTCTTT,-0.144,-0.289,-0.31,-2.12,-0.0719,-0.853,-0.397,-0.174,-0.296,-0.125
CGCGAAA,-0.0354,-0.117,-0.303,-0.261,-0.06,-0.647,0.0207,-0.0479,0.0306,-0.0462
TTATTTG,0.0345,-0.00943,-0.506,-0.7,0.0178,-1.15,0.0966,-0.0667,0.00456,-0.057
CCCTGAC,-0.0618,-0.15,-0.00712,-0.361,0.129,-0.441,-0.0349,-0.0453,-0.0867,-0.128
CGTGTGA,-0.117,-0.141,-0.388,-0.237,-0.0804,-0.809,-0.122,-0.221,-0.0553,-0.192
GGGGACG,0.0428,0.0524,0.867,1.81,-0.00823,2.21,0.176,0.154,-0.0859,0.15
GGTCAGT,0.116,0.22,0.822,1.84,0.0427,2.15,0.207,0.122,0.117,0.138
CCCTAAA,0.0949,0.0695,0.174,-0.2,0.0968,-0.448,0.111,0.168,0.154,0.141
AAGGCCT,-0.171,-0.117,0.0405,-0.443,-0.159,0.801,-0.597,0.0798,-0.131,0.00393
AGCCTAC,-0.0773,-0.134,-0.242,-0.732,-0.0731,0.0941,-0.126,-0.129,-0.0521,-0.0671
